In paper PMC4299599, “Quantification of cytosolic interactions identifies Ede1 oligomers as key organizers of endocytosis” (Molecular Systems Biology, 2014):

Biological target: T1, Sla1 (S. cerevisiae, UniProt P32790 1-1244)
T1 construct: Sla1, S. cerevisiae; Each copy carries one of the two tags; source: S. cerevisiae, chromosomally tagged at the endogenous locus, in living cells; not shown: 3myeGFP, C-terminal, kept; 3mCherry, C-terminal, kept
T1 sequence (looked up): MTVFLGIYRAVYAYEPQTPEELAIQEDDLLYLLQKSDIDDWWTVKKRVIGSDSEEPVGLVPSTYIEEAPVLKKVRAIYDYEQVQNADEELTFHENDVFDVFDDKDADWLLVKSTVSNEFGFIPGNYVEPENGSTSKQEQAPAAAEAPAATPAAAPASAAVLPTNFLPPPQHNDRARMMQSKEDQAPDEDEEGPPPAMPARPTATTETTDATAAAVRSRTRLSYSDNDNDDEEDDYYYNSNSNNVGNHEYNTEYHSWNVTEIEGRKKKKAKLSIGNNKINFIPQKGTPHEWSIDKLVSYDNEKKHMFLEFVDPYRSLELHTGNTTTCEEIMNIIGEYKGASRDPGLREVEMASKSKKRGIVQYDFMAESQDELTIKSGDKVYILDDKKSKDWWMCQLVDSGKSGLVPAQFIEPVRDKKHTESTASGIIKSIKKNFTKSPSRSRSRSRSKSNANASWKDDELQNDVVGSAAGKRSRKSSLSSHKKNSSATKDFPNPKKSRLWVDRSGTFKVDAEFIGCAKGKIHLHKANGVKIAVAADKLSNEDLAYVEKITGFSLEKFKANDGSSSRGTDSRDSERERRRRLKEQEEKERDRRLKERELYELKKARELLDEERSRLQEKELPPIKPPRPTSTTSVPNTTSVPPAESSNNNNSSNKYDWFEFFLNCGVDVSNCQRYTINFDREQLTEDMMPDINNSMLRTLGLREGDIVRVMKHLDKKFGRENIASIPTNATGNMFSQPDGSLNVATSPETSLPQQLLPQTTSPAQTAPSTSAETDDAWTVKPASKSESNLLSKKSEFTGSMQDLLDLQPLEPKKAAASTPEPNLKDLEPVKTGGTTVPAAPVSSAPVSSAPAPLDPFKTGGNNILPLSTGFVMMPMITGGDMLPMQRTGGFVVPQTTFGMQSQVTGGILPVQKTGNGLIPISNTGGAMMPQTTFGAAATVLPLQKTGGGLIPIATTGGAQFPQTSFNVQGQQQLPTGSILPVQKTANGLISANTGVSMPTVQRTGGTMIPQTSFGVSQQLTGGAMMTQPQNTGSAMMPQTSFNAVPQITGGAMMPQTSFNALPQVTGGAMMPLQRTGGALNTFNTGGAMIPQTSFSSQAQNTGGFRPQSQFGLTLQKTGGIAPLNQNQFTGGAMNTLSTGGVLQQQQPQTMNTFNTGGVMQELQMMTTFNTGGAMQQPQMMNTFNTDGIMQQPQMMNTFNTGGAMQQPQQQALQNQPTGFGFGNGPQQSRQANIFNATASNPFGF
Assay: fluorescence cross-correlation spectroscopy (FCCS); living yeast cells, observation volume in the cytoplasm; one protein tagged with (3)myeGFP/eGFP and the other with 3mCherry in the same strain; apparent (effective) KD; interactions up to ~1 μM detectable
Conditions: partners not purified

- Kd: 286 nM
B1: Las17 (natural protein)
chain: not shown
notes: Fused to single myeGFP instead of 3myeGFP; Each copy carries one of the two tags; also called Wiskott–Aldrich syndrome protein (WASP) Las17; source: S. cerevisiae, chromosomally tagged at the endogenous locus, in living cells; not shown: myeGFP (single), C-terminal, kept; 3mCherry, C-terminal, kept
